{"source": "paper PMC4336329", "about": "(PLoS ONE, 2015)", "note": "About 14,000 (4.5%) of roughly 310,000 compounds showed an effect of 50% or more. Effects have a minus sign here. The list shows a part of the results.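 Also: peak tail current of the secondary pulse compared with the same well before compound.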"}
{"molecular_target": "human ether-à-go-go-related gene (hERG) potassium channel (human, UniProt Q12809)", "sequence (Q12809 whole entry, looked up)": "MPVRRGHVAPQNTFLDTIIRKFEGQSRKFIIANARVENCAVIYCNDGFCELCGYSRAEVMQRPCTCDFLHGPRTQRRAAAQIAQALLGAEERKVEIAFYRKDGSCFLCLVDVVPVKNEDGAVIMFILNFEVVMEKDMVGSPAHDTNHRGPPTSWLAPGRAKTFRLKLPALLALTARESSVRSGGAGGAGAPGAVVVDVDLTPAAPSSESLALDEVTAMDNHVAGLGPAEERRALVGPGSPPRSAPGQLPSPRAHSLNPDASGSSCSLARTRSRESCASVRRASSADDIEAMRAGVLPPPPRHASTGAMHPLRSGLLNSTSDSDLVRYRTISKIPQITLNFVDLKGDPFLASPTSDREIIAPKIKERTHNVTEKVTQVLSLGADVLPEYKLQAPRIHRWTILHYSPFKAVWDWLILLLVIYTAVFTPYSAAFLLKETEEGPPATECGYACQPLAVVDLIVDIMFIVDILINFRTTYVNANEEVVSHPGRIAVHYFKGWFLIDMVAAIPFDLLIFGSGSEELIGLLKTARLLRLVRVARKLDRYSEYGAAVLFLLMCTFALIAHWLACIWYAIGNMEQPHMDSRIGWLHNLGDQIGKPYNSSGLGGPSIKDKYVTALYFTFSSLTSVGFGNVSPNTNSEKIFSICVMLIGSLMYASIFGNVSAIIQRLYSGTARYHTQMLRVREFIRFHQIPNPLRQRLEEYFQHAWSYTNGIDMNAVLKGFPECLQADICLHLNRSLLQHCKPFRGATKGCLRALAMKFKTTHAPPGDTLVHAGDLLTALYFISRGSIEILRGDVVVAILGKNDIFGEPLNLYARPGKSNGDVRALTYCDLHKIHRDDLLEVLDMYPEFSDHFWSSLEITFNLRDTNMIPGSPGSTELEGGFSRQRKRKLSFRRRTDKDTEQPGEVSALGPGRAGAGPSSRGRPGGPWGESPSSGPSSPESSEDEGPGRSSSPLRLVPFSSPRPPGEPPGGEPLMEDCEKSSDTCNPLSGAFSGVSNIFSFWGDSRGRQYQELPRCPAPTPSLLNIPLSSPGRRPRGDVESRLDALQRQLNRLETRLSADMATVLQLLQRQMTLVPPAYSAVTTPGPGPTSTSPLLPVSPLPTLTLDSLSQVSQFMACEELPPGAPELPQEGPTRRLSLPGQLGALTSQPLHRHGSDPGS", "test": "primary screen, population patch clamp on CHO cells stably expressing hERG", "units": {"hERG current change (%, negative = inhibition) at 10uM": "%"}}
{"smiles": "O=C(NCCOc1ccc(Cl)cc1)C(=O)NCC1CCCO1", "note": "(centres unmarked)", "hERG current change (%, negative = inhibition) at 10uM": 13.6}
{"smiles": "COCCCNC1=C(Cl)C(=O)c2ccccc2C1=O", "hERG current change (%, negative = inhibition) at 10uM": -7.92}
{"smiles": "Cc1ccc(N2CCN(c3ccc(C)cc3)C(CC(=O)O)C2=O)cc1", "note": "(centres unmarked)", "hERG current change (%, negative = inhibition) at 10uM": 10.7}
{"smiles": "O=C(NC(NC(=S)Nc1ccc(Cl)cc1Cl)C(Cl)(Cl)Cl)c1cccc([N+](=O)[O-])c1", "note": "(centres unmarked)", "hERG current change (%, negative = inhibition) at 10uM": 4.13}
{"smiles": "O=C(CSc1nc(=O)n(CCCN2CCOCC2)c2c1CCC2)Nc1ccc([N+](=O)[O-])cc1", "hERG current change (%, negative = inhibition) at 10uM": -60.4}
{"smiles": "CN(Cc1ccccc1)S(=O)(=O)c1ccc(Cl)c(C(=O)NCc2ccncc2)c1", "hERG current change (%, negative = inhibition) at 10uM": -55.8}
{"smiles": "CCOC(=O)c1c(-c2ccco2)csc1N", "hERG current change (%, negative = inhibition) at 10uM": -0.692}
{"smiles": "CC(C)(C)c1ccc(S(=O)(=O)Nc2noc3ccccc23)cc1", "hERG current change (%, negative = inhibition) at 10uM": 4.81}
{"smiles": "CCOC(=O)N1CCN(C(=O)c2ccccc2NC(=O)COc2ccccc2)CC1", "hERG current change (%, negative = inhibition) at 10uM": -13.2}
{"smiles": "CCOC(=O)C1=C(N)OC2=C(C(=O)CCC2)C1c1sccc1C", "note": "(centres unmarked)", "hERG current change (%, negative = inhibition) at 10uM": -28}
{"smiles": "O=C(Nc1ccnn1C1CCN(C(=O)c2cccc(Cl)c2)CC1)C1CC1", "hERG current change (%, negative = inhibition) at 10uM": 7.52}
{"smiles": "CN(C)CCCOC(=O)c1sc2ccccc2c1Cl.Cl", "hERG current change (%, negative = inhibition) at 10uM": -50.2}
{"smiles": "O=C(CN(c1ccccc1)S(=O)(=O)c1ccc(Cl)cc1)Nc1ccccc1C(=O)N1CCCC1", "hERG current change (%, negative = inhibition) at 10uM": -54.2}
{"smiles": "COc1ccc2nc(C)cc(SCC(=O)O)c2c1", "hERG current change (%, negative = inhibition) at 10uM": 1.15}
{"smiles": "Cc1ccc(Cl)cc1N1CCN(C(=O)C2CCN(S(=O)(=O)c3cnc[nH]3)CC2)CC1", "hERG current change (%, negative = inhibition) at 10uM": -0.787}
{"smiles": "CN(CC(=O)Nc1ccccc1F)CC(=O)Nc1ccccc1Br", "hERG current change (%, negative = inhibition) at 10uM": 4.44}
{"smiles": "COc1ccc(CNC(=O)CCCCCNC(=O)N2CCn3c2nc2ccccc23)cc1", "hERG current change (%, negative = inhibition) at 10uM": -30.7}
{"smiles": "CN1C2CCC1CC(OC(=O)CCN1CCCC1)C2", "note": "(centres unmarked)", "hERG current change (%, negative = inhibition) at 10uM": 6.82}
{"smiles": "CC1CCC(=O)N(CCC#N)CC1", "note": "(centres unmarked)", "hERG current change (%, negative = inhibition) at 10uM": -9.42}
{"smiles": "CCOc1ccc(Nc2nc(N3CCOCC3)nc(N3CCOCC3)n2)cc1", "hERG current change (%, negative = inhibition) at 10uM": -17.9}
{"smiles": "CC(=O)c1ccccc1NS(=O)(=O)c1cccc2nsnc12", "hERG current change (%, negative = inhibition) at 10uM": 11.7}
{"smiles": "Cc1cccc(C(=O)NNC(=O)c2ccc(S(=O)(=O)N3CCOCC3)cc2)c1", "hERG current change (%, negative = inhibition) at 10uM": 5.57}
{"smiles": "CCOc1ccc(S(=O)(=O)NCc2csc(C)n2)cc1", "hERG current change (%, negative = inhibition) at 10uM": -5}
{"smiles": "O=C(Oc1nsnc1N1CCOCC1)N1CCCC1", "hERG current change (%, negative = inhibition) at 10uM": 2.82}
{"smiles": "CCOC(=O)/C(C#N)=C\\C1=C(N2CCOCC2)CC(C)(C)OC1", "hERG current change (%, negative = inhibition) at 10uM": 26.3}
{"smiles": "Cc1c(CN(C)C(=O)/C=C/c2ccc([N+](=O)[O-])cc2)cnn1C", "hERG current change (%, negative = inhibition) at 10uM": -69.6}
